Data published in PubChem BioAssay AID1347165 (National Center for Advancing Translational Sciences (NCATS), 2019).
Screen size: about 220,000 compounds; about 5,700 (2.6%) were called active. Inconclusive means that the source gave no clear call. Such entries were picked first, then a sample of the others. The call rests on the fitted dose curve; in most records, active means well fitted inhibition curve with a large enough effect; inconclusive means small, poorly fitted or top-dose-only effect; inactive means no such curve, though single readings can be large or run the other way. A potency beside an inconclusive call is a rough fit, not a confirmed value.

Each molecule was assayed against Lysine-specific demethylase 5B (Homo sapiens) (UniProt Q9UGL1) (assay: Primary screen for KDM5B Histone Demethylases FDH-coupled qHTS). Settings: FDH-coupled NADH fluorescence (FDH is formaldehyde dehydrogenase); activity change, negative = inhibition: at 57.7 µM (top of the series) unless noted.
Chain of UniProt Q9UGL1 (Q9UGL1 whole entry, looked up): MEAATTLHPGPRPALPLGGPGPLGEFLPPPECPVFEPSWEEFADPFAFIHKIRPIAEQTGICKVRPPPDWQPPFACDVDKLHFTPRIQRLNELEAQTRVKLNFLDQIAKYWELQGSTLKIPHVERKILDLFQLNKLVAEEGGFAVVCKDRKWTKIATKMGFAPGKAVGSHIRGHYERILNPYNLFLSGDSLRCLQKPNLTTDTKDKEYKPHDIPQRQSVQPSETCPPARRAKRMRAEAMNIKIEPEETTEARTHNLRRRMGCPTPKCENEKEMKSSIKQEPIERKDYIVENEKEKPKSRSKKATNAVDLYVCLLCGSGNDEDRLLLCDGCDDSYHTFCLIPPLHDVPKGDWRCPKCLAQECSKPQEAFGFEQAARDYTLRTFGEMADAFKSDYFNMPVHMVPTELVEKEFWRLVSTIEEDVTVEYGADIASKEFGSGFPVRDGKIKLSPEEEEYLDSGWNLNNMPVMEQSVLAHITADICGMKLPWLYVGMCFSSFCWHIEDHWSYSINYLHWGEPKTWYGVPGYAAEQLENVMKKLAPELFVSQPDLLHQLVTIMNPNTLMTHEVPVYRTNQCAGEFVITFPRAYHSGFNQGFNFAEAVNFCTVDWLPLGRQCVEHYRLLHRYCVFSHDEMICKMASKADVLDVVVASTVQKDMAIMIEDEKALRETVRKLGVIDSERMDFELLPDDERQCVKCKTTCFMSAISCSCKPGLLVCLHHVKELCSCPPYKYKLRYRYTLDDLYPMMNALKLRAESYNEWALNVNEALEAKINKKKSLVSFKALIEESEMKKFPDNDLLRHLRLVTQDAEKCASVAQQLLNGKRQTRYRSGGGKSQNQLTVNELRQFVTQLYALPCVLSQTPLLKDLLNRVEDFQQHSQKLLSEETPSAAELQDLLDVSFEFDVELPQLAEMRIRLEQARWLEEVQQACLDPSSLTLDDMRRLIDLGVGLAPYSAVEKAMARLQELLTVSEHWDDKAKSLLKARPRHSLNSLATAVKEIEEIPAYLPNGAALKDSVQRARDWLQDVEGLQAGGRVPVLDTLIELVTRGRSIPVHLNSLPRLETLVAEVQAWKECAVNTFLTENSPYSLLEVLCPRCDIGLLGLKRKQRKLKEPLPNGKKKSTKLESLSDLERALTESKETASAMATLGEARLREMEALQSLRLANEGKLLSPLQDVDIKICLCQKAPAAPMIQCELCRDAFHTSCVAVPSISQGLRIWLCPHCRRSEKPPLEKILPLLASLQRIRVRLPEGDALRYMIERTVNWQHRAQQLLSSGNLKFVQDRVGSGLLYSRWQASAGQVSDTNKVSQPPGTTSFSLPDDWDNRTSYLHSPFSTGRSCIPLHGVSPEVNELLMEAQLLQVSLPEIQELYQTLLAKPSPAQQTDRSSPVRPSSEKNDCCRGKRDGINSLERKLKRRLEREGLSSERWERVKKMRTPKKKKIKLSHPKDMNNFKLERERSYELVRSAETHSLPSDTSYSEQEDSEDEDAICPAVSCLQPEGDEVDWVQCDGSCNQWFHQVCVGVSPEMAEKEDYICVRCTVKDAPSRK
How it was run: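 Here, H3K4me3 peptide (12.5 µM in substrate mix) is demethylated by KDM5BΔAP, 200 nM final, after 10 min compound exposure. Formaldehyde product is coupled through FDH (0.25 U/mL in mix) to NADH fluorescence; 30-min ΔRFU feeds dose-response curves.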
Further: nearly all actives have a fitted effect of over 70% in size.
Potency means the concentration at half of the fitted maximal effect; tags describe the fitted curve by direction and shape.
Wherever activity change, negative = inhibition is given: 0% is about no effect.

Structure (SMILES)	Potency	activity change, negative = inhibition
COC(=O)c1ccc(/C=C/c2nc3ccc(OC)cc3s2)cc1	inconclusive: 39.8 µM [inhibitor, single point]	–
Cn1c(C(=O)NCc2ccccc2F)cc2oc3ccccc3c21	inconclusive: 28.2 µM [inhibitor, partial curve, poor fit]	–
Cc1ccccc1C1C2=C(CCCC2=O)Nc2nc(SCc3ccc(C(=O)O)cc3)nn21 (stereo unspecified)	inactive	–
Cn1nc(C(F)(F)F)c(-c2ccc(Br)cc2)c1NC(=O)c1nccnc1C(=O)O	inconclusive: 35.5 µM [inhibitor, partial curve, poor fit]	–
O=C(CN1CCN(c2nccc(-c3cccnc3)n2)CC1)N1CCOCC1	inconclusive: 28.2 µM [inhibitor, partial curve, poor fit]	–
CCN(CC)c1ccc(-c2nnc(SCCS(=O)(=O)c3ccc(Br)cc3)o2)cc1	inactive	–
COc1ccc2[nH]c(C)c(CC(=O)O)c2c1	inconclusive: 12.6 µM [inhibitor, partial curve, poor fit]	–
CCc1cc(=O)oc2c(C)c(OCC(=O)NCCCn3ccnc3)ccc12	inconclusive: 22.4 µM [inhibitor, single point]	–
Cc1noc(C)c1[S+](=O)([O-])N1CC(Oc2ccc(F)cc2F)C1	inactive	–
CCN(CC)CCCNC(=O)CSc1c2c(nc3cc(Cl)ccc13)CCCC2	inconclusive: 22.4 µM [inhibitor, single point]	–
COc1ccc(/C=C/c2nc(C#N)c(NCCN3CCOCC3)o2)cc1OC	inconclusive: 12.6 µM [inhibitor, partial curve, poor fit]	–
CCN(CC)C(=O)CC[C@@H]1CNC(=O)[C@@H]2C[C@H](NC(=O)Nc3ccccc3)CN12	inconclusive: 28.2 µM [inhibitor, single point]	–
COCc1cccc(-c2ccc3ncn(-c4ccc(F)cc4F)c(=O)c3n2)c1	active: 31.6 µM	–
CN1c2cc(C(=O)Nc3cc(F)cc(F)c3)ccc2C(=O)N2CCCCC21 (stereo unspecified)	inconclusive: 35.5 µM [inhibitor, partial curve, poor fit]	–
COc1ccc(NC(=O)C(C)N2CCN(C)CC2)cc1 (stereo unspecified)	inconclusive: 8.91 µM [inhibitor, full curve, poor fit]	–
CC(=O)Oc1c(-c2ccc(NC(=O)C(C)C)cc2)c(-c2ccc(F)cc2)nn1-c1ccc(F)cc1	inconclusive: 31.6 µM [inhibitor, single point]	–
Cc1cccc2sc(N(CCCN(C)C)C(=O)c3ccc(Cl)s3)nc12	inconclusive: 35.5 µM [inhibitor, single point]	–
Cc1ccc2c(c1)c1c(c(=O)n(-c3ccccc3C)c(=O)n1CC(=O)N1CCCC1)n2C	inconclusive: 2.51 µM [inhibitor, partial curve, poor fit]	–
Cc1ccccc1Nc1sc(C(=O)c2ccccc2)c(N)c1C(=O)NCc1ccc(Cl)cc1	inconclusive: 15.8 µM [inhibitor, partial curve, poor fit]	–
COc1cc(OC)c(NC(=O)CC(c2cccs2)N2Cc3ccccc3C2=O)cc1Cl (stereo unspecified)	–	inconclusive: -34.9% [inhibitor]
CN1CC(=O)N(C2CCNC2)Cc2c(NCC3(O)CCCCC3)ncnc21 (stereo unspecified)	inconclusive: 50.1 µM [inhibitor, partial curve]	–
COc1ccccc1Oc1c(C)oc2cc(OCC(=O)Nc3ccccc3F)ccc2c1=O	inactive	–

Structure (SMILES)	Potency	activity change, negative = inhibition
COc1ccc(C(=O)NC2CCCC2)c(OC)c1	inactive	–
CN(Cc1cccnc1)c1ccc2ncc(Nc3cccc(C(F)(F)F)c3)n2n1	inconclusive: 39.8 µM [inhibitor, partial curve, poor fit]	–
O=C(NCc1ccccn1)c1ccc(N2CC3CC(C2)[C@H]2CCCC(=O)N2C3)nc1 (stereo partly specified)	inconclusive: 28.2 µM [inhibitor, partial curve]	–
O=C(CN1CCN(Cc2nc3ccsc3c(=O)[nH]2)CC1)NC1CC1	inactive	–
CCS(=O)(=O)N(Cc1ccc(Cl)c(Cl)c1)c1c(C)n(C)n(-c2ccccc2)c1=O	inconclusive: 39.8 µM [inhibitor, single point]	–
CCC(C)NC(=O)C(NC(=O)c1cccc(OC)c1)C1CCN(C(=O)CC(C)(C)C)CC1 (stereo unspecified)	inactive	–
Cc1cccc(N2CCN(C(C(=O)O)c3cn(C)c4cc(C(=O)O)ccc34)CC2)c1C (stereo unspecified)	inconclusive: 28.2 µM [inhibitor, single point]	–
CCCNC(=O)c1c(C)nn(-c2cccc(C)c2)c1-n1cccc1	inactive	–
CN(CCc1ccccn1)[C@H]1[C@@H]2OC[C@@H](O2)[C@@H](NCc2ccc3c(c2)OCO3)[C@@H]1O	inconclusive: 39.8 µM [inhibitor, single point]	–
COc1ccc(C(=O)NCCc2ncc(C)n2CC2CC2)cc1	inactive	–
Cc1ccccc1NC(=O)c1cn2c(nc3ccccc32)c(C#N)c1C	inconclusive: 31.6 µM [inhibitor, partial curve, poor fit]	–
COc1cccc(C(=O)N2c3nc(-c4ccco4)nn3C3(CCCCC3)[C@@H]3CCCC[C@@H]32)c1	inconclusive: 28.2 µM [inhibitor, partial curve, poor fit]	–
O=C(NC[C@H]1O[C@@H](CO)[C@@H](O)[C@H]1N1CCN(c2ccccn2)CC1)c1ccco1	inconclusive: 15.8 µM [inhibitor, partial curve]	–
COc1cc(OC)cc(-c2nc3nc(C)c(CCC(=O)Nc4ccc(F)cc4F)c(C)n3n2)c1	–	inconclusive: -36.6% [inhibitor]
COc1cccc(/C=N/NC(=O)c2cnccn2)c1OC	inactive	–
NCC1CCN(CCO)C1 (stereo unspecified)	inconclusive: 15.8 µM [inhibitor, partial curve, poor fit]	–
COc1cc(/C=C/c2nc(C#N)c(N(C)C)o2)cc(OC)c1OC	inconclusive: 1.58 µM [inhibitor, partial curve, poor fit]	–
COc1ccc(NC(=O)N2CCC(N3CC4CC(C3)[C@H]3CCCC(=O)N3C4)CC2)cc1OC (stereo partly specified)	active: 25.1 µM	–
COCCN1CCCCCC(O)c2cc(C(=O)NCc3cc(OC)ccc3OC)ccc21 (stereo unspecified)	inconclusive: 28.2 µM [inhibitor, single point]	–
COc1ccccc1CNC(=O)c1c(C)oc2ccn(Cc3cccc(F)c3)c(=O)c12	inconclusive: 14.1 µM [inhibitor, partial curve, poor fit]	–
CCOc1ccccc1CN1CCC2(CCN(C(=O)Cc3ccc(F)cc3)CC2)Oc2ccccc21	inconclusive: 15.8 µM [inhibitor, partial curve, poor fit]	–
Brc1ccccc1N=Cc1ccc(-c2ccccc2)cc1	inconclusive: 20 µM [inhibitor, partial curve, poor fit]	–

Structure (SMILES)	Potency	activity change, negative = inhibition
N/C(=N\c1nc2ccccc2o1)NC(=O)c1ccccc1Br	inconclusive: 28.2 µM [inhibitor, partial curve, poor fit]	–
COC(=O)c1ccc([C@H]2[C@@H](C(=O)O)c3ccccc3C(=O)N2Cc2ccc(F)cc2)cc1	inactive	–
CC(=O)Nc1ccc(CNCCSCc2cccs2)cc1	inactive	–
O=C(CSc1nc2ccc(Cl)cc2[nH]1)c1cccs1	inconclusive: 25.1 µM [inhibitor, single point]	–
COC(=O)CNC(=O)c1cc(-c2ccc(Cl)nc2)c2cnn(C)c2n1	inconclusive: 39.8 µM [inhibitor, partial curve, poor fit]	–
CCNc1c(NC(=O)c2cccc(Cl)c2)c(=O)oc2ccccc12	inactive	–
Cc1cc(C(=O)OCC(=O)Nc2ccccc2C(C)C)c2ccccc2n1	inactive	–
Cc1cccc(CNC(=O)NCC2CCN(Cc3ccncc3)C2)c1 (stereo unspecified)	active: 14.1 µM	–
Cc1cccc(NC(=O)CSC2=C(C#N)C(c3ccccc3C)C3=C(CCCC3=O)N2)c1 (stereo unspecified)	inconclusive: 25.1 µM [inhibitor, single point]	–
C=CCN(CC=C)C(=O)CSc1nnc(-c2c[nH]c3ccccc23)o1	inactive	–
CCn1c(SCC(=O)c2ccc(Cl)cc2)nc2c1c(=O)[nH]c(=O)n2C	inactive	–
Cc1cccc(-c2onc3ccc(C(=O)/C=C/N(C)C)cc23)c1	inconclusive: 35.5 µM [inhibitor, partial curve, poor fit]	–
COc1ccccc1-c1cc2[nH]ccc2c(C(=O)NCc2c(C)cc(C)[nH]c2=O)n1	inactive	–
Cc1ccc2c(c1)-c1nc(SCC(=O)Nc3cc(F)ccc3C)ncc1S(=O)(=O)N2C	inconclusive: 1.78 µM [inhibitor, partial curve, poor fit]	–
CC(C)c1nc2nccc(-c3ccccc3)n2n1	active: 28.2 µM	–
O=C(C1CCCC1)N1Cc2ccccc2NC(=O)C12CCNC2 (stereo unspecified)	inconclusive: 56.2 µM [inhibitor, partial curve]	–
COc1ccc(-c2cn(C)c(=O)n3cc(CN4CC[S+](=O)([O-])CC4)nc23)cc1OC	active: 35.5 µM	–
Cc1cccc(CNC(=O)c2ccc(-c3nnc4ccc(NC(=O)C5CCC5)cn34)cc2)c1	active: 28.2 µM	–
CN1CCC(N2CCN(C(=O)CCc3ccnc(N4CCOCC4)c3)CC2)CC1	inconclusive: 22.4 µM [inhibitor, single point]	–
O=C(CCC(=O)N1CC2CCCN2c2ccccc21)NCc1cccc(Cl)c1 (stereo unspecified)	–	inconclusive: -33.5% [inhibitor]
COc1cc2c(=O)n(Cc3ccccc3Cl)c(=O)n(CC(=O)Nc3ccccc3)c2cc1OC	inconclusive: 17.8 µM [inhibitor, partial curve, poor fit]	–
CC(OC(=O)c1cc(=O)[nH]c2ccccc12)C(=O)NC1(C#N)CCCCC1 (stereo unspecified)	inconclusive: 25.1 µM [inhibitor, partial curve, poor fit]	–
